Counter-ions that a name gives are not always drawn. ± gives the standard deviation of the averaged measurements. The list shows a part of the results.
What was measured:
Conditions in all cases: priming compound concentration 100 µM
[1] = test system: hAMSC donor 1; assay: Hoechst total cell count ratio vs vehicle control; higher = more cells (less toxicity)
[2] = test system: hAMSC donor 2; assay: as above
[3] = test system: hAMSC donor 1; assay: transgenic luciferase activity (RLU/mg protein) fold change vs vehicle control (ratio); higher = more transgene expression
[4] = test system: hAMSC donor 2; assay: as above
[5] = test system: hAMSC donor 1; assay: transfection efficiency (EGFP+ cells / Hoechst count) fold change vs vehicle control (ratio); hAMSC are human adipose-derived mesenchymal stem cells given an EGFP-luciferase plasmid by lipofection; higher = enhanced transfection
[6] = test system: hAMSC donor 2; assay: as above
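For Hoechst total cell count ratio vs vehicle control in this document: compound added 30 min before Lipofectamine 3000 lipoplex delivery, triplicate-well means expressed against DMSO vehicle control wells of the same 96-well plate.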
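For transfection efficiency (EGFP+ cells / Hoechst count) fold change vs vehicle control in this document: compounds added 30 min before Lipofectamine 3000 lipoplex transfection, triplicate means relative to DMSO vehicle wells on the same plate, luciferase RLU normalized to BCA total protein.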
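For transgenic luciferase activity (RLU/mg protein) fold change vs vehicle control in this document: compounds in DMSO added 30 min before Lipofectamine 3000 transfection of pEGFP-Luc in 96-well plates, values are means of triplicate wells over DMSO vehicle wells on the same plate.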

Row | Compound | Hoechst total cell count ratio [1] | Hoechst total cell count ratio [2] | transgenic luciferase activity [3] | transgenic luciferase activity [4] | transfection efficiency [5] | transfection efficiency [6]
1 | CO[C@H]1O[C@@H]2O[C@@]3(C)CC[C@H]4[C@H](C)CC[C@@H]([C@H]1C)[C@@]24OO3 [Artemether] | 1.97 ± 0.4 | 1.09 ± 0.026 | 0.659 ± 0.021 | 1 ± 0.25 | 1.09 ± 0.51 | 0.634 ± 0.068
2 | CC(=O)N1CCN(c2ccc(OCC3COC(Cn4ccnc4)(c4ccc(Cl)cc4Cl)O3)cc2)CC1 (stereo unspecified) [Ketoconazole] | 1.36 ± 0.061 | 0.951 ± 0.028 | 2.44 ± 0.36 | 3.48 ± 0.2 | 1.2 ± 0.11 | 2.1 ± 0.23
3 | N#Cc1ccc(C(c2ccc(C#N)cc2)n2cncn2)cc1 [Letrozole] | 1.37 ± 0.094 | 1.18 ± 0.19 | 0.709 ± 0.024 | 0.518 ± 0.093 | 0.476 ± 0.16 | 0.92 ± 0.064
4 | C#C[C@]1(O)CC[C@H]2[C@@H]3CCc4cc(O)ccc4[C@H]3CC[C@@]21C [Ethynylestradiol] | 1.09 ± 0.011 | 1.1 ± 0.16 | 1.08 ± 0.28 | 0.624 ± 0.15 | 1.07 ± 0.34 | 0.784 ± 0.21
5 | C[C@@H]1C[C@H]2[C@@H]3CCC4=CC(=O)C=C[C@]4(C)[C@@]3(F)[C@@H](O)C[C@]2(C)[C@H]1C(=O)CO [Desoximetasone] | 1.4 ± 0.038 | 0.976 ± 0.094 | 7.48 ± 0.26 | 6.09 ± 0.76 | 2.19 ± 0.39 | 1.85 ± 0.23
6 | CC(Cc1ccccc1)(NC(=O)CN)c1ccccc1 (stereo unspecified) [Remacemide hydrochloride] | 1.58 ± 0.17 | 1.3 ± 0.1 | 1.3 ± 0.7 | 0.472 ± 0.0081 | 1.05 ± 0.15 | 0.586 ± 0.048
7 | CCN(CC)CC1CCCCN1CC(=O)N1c2ccccc2C(=O)Nc2cccnc21 (stereo unspecified) [Otenzepad] | 1.2 ± 0.19 | 1.02 ± 0.051 | 0.188 ± 0.069 | 0.439 ± 0.17 | 0.89 ± 0.11 | 0.835 ± 0.065
8 | OCCOCCN1CCN(C(c2ccccc2)c2ccc(Cl)cc2)CC1 (stereo unspecified) [Hydroxyzine pamoate] | 1.02 ± 0.12 | 1.24 ± 0.15 | 0.415 ± 0.2 | 0.909 ± 0.067 | 0.67 ± 0.12 | 0.683 ± 0.13
9 | CCCC(CCC)C(=O)O [Valproic acid] | 1.21 ± 0.28 | 1.59 ± 0.41 | 1.3 ± 0.81 | 1.13 ± 0.26 | 1.05 ± 0.2 | 0.966 ± 0.17
10 | CNCCCCOc1ccccc1Cc1ccccc1 [Bifemelane hydrochloride] | 0.111 ± 0.025 | 0.101 ± 0.025 | 0.0245 ± 0.017 | 0.0527 ± 0.027 | 0.655 ± 0.57 | 0.476 ± 0.23
11 | COc1cc(C)nc(-n2nc(C)cc2OC)n1 [Mepirizole] | 1.52 ± 0.14 | 1.2 ± 0.24 | 1.21 ± 0.23 | 0.457 ± 0.28 | 0.575 ± 0.14 | 1.05 ± 0.35
12 | O=c1cnn([C@@H]2O[C@H](CO)[C@@H](O)[C@H]2O)c(=O)[nH]1 [6-Azauridine] | 1.05 ± 0.032 | 1.13 ± 0.13 | 3.17 ± 1.8 | 1.62 ± 0.088 | 2.76 ± 0.37 | 2.45 ± 0.58
13 | CN1CCN(C2=Nc3ccccc3Oc3ccc(Cl)cc32)CC1 [Loxapine succinate] | 0.937 ± 0.033 | 1.56 ± 0.03 | 0.556 ± 0.036 | 0.267 ± 0.06 | 1.1 ± 0.21 | 0.63 ± 0.031
14 | COc1ccccc1N1CCN(CC(O)COc2cccc3ccccc23)CC1 (stereo unspecified) [Naftopidil] | 0.867 ± 0.038 | 0.175 ± 0.037 | 0.795 ± 0.14 | 0.0786 ± 0.073 | 0.651 ± 0.06 | 0.215 ± 0.19
15 | CCCc1nc(C)c2c(=O)nc(-c3cc(S(=O)(=O)N4CCN(CC)CC4)ccc3OCC)[nH]n12 [Vardenafil citrate] | 1.59 ± 0.12 | 1.21 ± 0.11 | 0.807 ± 0.7 | 0.611 ± 0.22 | 0.976 ± 0.043 | 0.596 ± 0.11
16 | C[C@]12CC[C@@H]3c4ccc(O)cc4CC[C@H]3[C@@H]1CC[C@@H]2O [Beta-estradiol] | 1.09 ± 0.25 | 0.702 ± 0.087 | 0.59 ± 0.62 | 1.01 ± 0.12 | 1.36 ± 0.49 | 1.87 ± 0.41
17 | COc1cc2c(cc1OC)C(=O)C(CC1CCN(Cc3ccccc3)CC1)C2 (stereo unspecified) [Donepezil hydrochloride] | 1.02 ± 0.07 | 1.14 ± 0.12 | 0.26 ± 0.14 | 0.699 ± 0.23 | 0.589 ± 0.06 | 0.717 ± 0.1
18 | CN(C)CCC=C1c2ccccc2COc2ccccc21 [Doxepin hydrochloride] | 0.834 ± 0.01 | 1.07 ± 0.2 | 0.601 ± 0.18 | 0.514 ± 0.054 | 1.57 ± 0.35 | 0.867 ± 0.17
19 | Nc1ccc2cn[nH]c2c1 [6-Aminoindazole] | 1.44 ± 0.37 | 1.08 ± 0.093 | 1.34 ± 1.1 | 1.28 ± 0.17 | 0.682 ± 0.23 | 0.98 ± 0.054
20 | C/C(=C\C(=O)OCCCCCCCCC(=O)O)C[C@@H]1OC[C@H](C[C@@H]2O[C@H]2[C@@H](C)[C@H](C)O)[C@@H](O)[C@H]1O [Mupirocin] | 1.09 ± 0.065 | 1.07 ± 0.31 | 2.11 ± 0.84 | 1.41 ± 0.73 | 1.33 ± 0.48 | 1.14 ± 0.045
21 | CC(C)(C(=O)O)c1ccc(C(O)CCCN2CCC(C(O)(c3ccccc3)c3ccccc3)CC2)cc1 (stereo unspecified) [Fexofenadine hydrochloride] | 1.11 ± 0.025 | 1.69 ± 0.35 | 0.711 ± 0.66 | 0.831 ± 0.079 | 0.992 ± 0.17 | 0.76 ± 0.085

— the supplement of paper PMC7238544
